From the supplement of paper PMC10126150
Values marked as one replicate rest on one cluster of the flow cell; about a third of the high ones do not repeat.

System: ATP
Assay: switch fluorescence ratio, 500 uM ATP over buffer (Cy3 cluster intensity, sum of 5 cycles each) (fold (ratio)); higher = stronger signal-on switching upon ATP binding; sequences stand for … in TCGTCGGCAGCGTCAGATGTGTATAAGAGACAGTTTTTTTTTTTTTTTTTTTTTTTTT…TC
Settings: aptamer strand: ATP DNA aptamer (quencher-CACCTGGGGGAGTATTGCGGAGGAAGG + anchor), 100 nM annealed; ATP concentration: 500 uM; one replicate
Procedure, shortened: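 The quencher-labelled ATP aptamer, at 100 nM, was annealed to Cy3-labelled switching-strand clusters on a modified Illumina MiSeq flow-cell. The clusters were imaged in selection buffer, then after 15 min with 500 uM ATP at 22 °C, and this buffer/ATP cycle ran five times with NaOH stripping and re-annealing between runs. Per-cluster fluorescence ratios, summed target-cycle over summed buffer-cycle Cy3 intensity, were averaged per switch-domain sequence. Clusters outside 100-1000 RFU were excluded.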
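Note: ATP exposure 15 min at 22 °C before imaging.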

| Sequence | switch fluorescence ratio |
| --- | --- |
| CCATGCACCT | 1.15 |
| CTTCGAGTTG | 0.98 |
| CGATTTCGA | 1.01 |
| AACGGACACT | 1.15 |
| AATCGCCCGT | 1.01 |
| GGTGTCTCTT | 0.973 |
| TAACTTAACT | 1.03 |
| CGTGGGGACG | 1.02 |
| AGGTTTTCGG | 0.978 |
| ACCGTAGGTC | 0.987 |
| AGCGCAACGG | 1.04 |
| GGAGTAAATT | 0.972 |
| TATGTTACAA | 1.06 |
| TGTATATCTC | 0.94 |
| GTTGTATTAA | 0.995 |
| GTTTCTCGTA | 0.984 |
| CTGGATAAGT | 0.976 |
| ATGTCAGGAC | 1.01 |
| AGCCATAAGC | 1.01 |
| GTTAAACTAA | 1.01 |
| TAGCCGGCAC | 0.993 |
| TTATTTGAGA | 0.989 |
| TACTGGTAAC | 1.04 |
| GCGCCAAGTG | 1.08 |
| CACACGTGCC | 1.04 |

| Sequence | switch fluorescence ratio |
| --- | --- |
| GCCATGATGA | 0.989 |
| AAAATTTACC | 1.01 |
| TAAATTTTA | 1.02 |
| TCAATCCATT | 0.96 |
| TTTCCCCCAG | 0.984 |
| GACTTCGAGA | 1.08 |
| CAGTCCAGAC | 1.02 |
| GATTAGGTTA | 0.995 |
| GACGTAAGTC | 1.01 |
| GGGACGGC | 1.03 |
| GCGCCGGTTC | 0.981 |
| CCCCGTCGGT | 1.39 |
| GACTAATTGC | 0.995 |
| CGCGCCGGTC | 1.05 |
| TAACCTTCTT | 2.13 |
| GAAATGGGCC | 1.04 |
| AGACAGCTA | 1.42 |
| GTTTTACGTT | 0.989 |
| TATTAGTATC | 0.98 |
| TTGTTCTTCA | 0.944 |
| TAGACCCCTG | 1.01 |
| ATTCTGACTG | 1 |
| AGGAGCCATG | 0.982 |
| AAGTTGGGCG | 1.06 |
| TTCGATTGGC | 1.01 |

| Sequence | switch fluorescence ratio |
| --- | --- |
| TAGAGGAACG | 1.02 |
| TTTTAGCTAA | 1.03 |
| TTGTTTAAAT | 0.999 |
| TATCAGTTCT | 1.01 |
| CCATCTGGAG | 1.03 |
| CCTAAAACAA | 1.06 |
| CCACGGGATA | 1.09 |
| ATTGGGCGGA | 1.03 |
| CAAGTCCTTA | 1.01 |
| TTAGGACCTA | 1.05 |
| CGAGAGGTGT | 1.06 |
| CCCTGGCGTG | 1.2 |
| AACTTACTGA | 1.2 |
| TCTACTAATT | 1.01 |
| TACCTAAGTC | 0.99 |
| GGCCGGACGC | 0.997 |
| TAGGGTCTG | 1.01 |
| CCGAACAGCA | 3.64 |
| TGCTCGCCGT | 1.11 |
| GAGGATATAT | 0.985 |
| TGTGTTGAAT | 0.959 |
| CATTACGGT | 1.04 |
| CGATGCCACG | 1.05 |
| TTAATGCGAA | 0.972 |
| GAGCCAGCTT | 0.978 |

| Sequence | switch fluorescence ratio |
| --- | --- |
| GATTAGTGAA | 0.959 |
| ACACACCCAC | 1.54 |
| ATCGAGGGAA | 1.01 |
| CAGCAAAGAG | 1.28 |
| GGGTATTTAA | 0.956 |
| GCGGCTGAAG | 0.969 |
| CTCCACGAAT | 1.42 |
| TCGAGGCTAT | 4.57 |
| ATAGGAATAA | 0.977 |
| ATCAAATAAT | 1.05 |
| CCTTGAACT | 0.99 |
| TTGGCGCAGG | 1.05 |
| GCCTCGCGAC | 2.13 |
| GCGCGCGTTT | 0.954 |
| TAAAAGTCCT | 1.12 |
| TAAGCAATAG | 3.66 |
| AGATGAGGCC | 1.01 |
| GGTACCGCTT | 1.05 |
| ACACGTGTGC | 1.01 |
| GGTCTGAGCG | 1.03 |
| AGGACTTCAA | 0.978 |
| TCGATGACTA | 0.995 |
| ACTTAGGGCG | 1.04 |
| CTGTCGGATC | 0.975 |
| GTATTCGCGC | 0.993 |

| Sequence | switch fluorescence ratio |
| --- | --- |
| ATTTTCTGTG | 0.995 |
| CCTGAGGAAT | 1.13 |
| CTGAAAGCAG | 1.41 |
| ACCATTTTCT | 1.03 |
| CTCTGAAATG | 1.15 |
| TCCCCTCTTC | 0.956 |
| ATTCAAGACT | 1.05 |
| ACATTGCTGA | 1.05 |
| CGGACCCTTT | 1.03 |
| CACTCGCTTT | 1.07 |
| ATAGCTCGA | 1.03 |
| TCTCTATCAG | 0.992 |
| CACAGGACAC | 1.08 |
| ATCCGTTTCT | 1.03 |
| TGGTTTAGAT | 0.96 |
| CCGGTTGC | 1.91 |
| GCTGCTTGTG | 1.05 |
| TGGTGTAGGG | 1.1 |
| CTTGCTGATA | 1.07 |
| GTCGGTGGGG | 0.988 |
| ATTTATGGAC | 0.967 |
| GCGTCGATGC | 1.07 |
| AGCGGGGTGT | 1.33 |
| AGCGGGATCG | 1.03 |
| GACATAGTAG | 1.02 |

| Sequence | switch fluorescence ratio |
| --- | --- |
| CGAGCTTGCG | 1.04 |
| AGTAGGCCCA | 0.969 |
| CCAGTTTCGA | 1.02 |
| CTATGAGGCT | 0.973 |
| CAAATGCGAC | 1.24 |
| GCTATCGATG | 0.935 |
| AACGGTTTGA | 0.966 |
| GAACTGGAGC | 1.05 |
| TTGAACTCCG | 1.42 |
| AAGTAGTTGT | 0.981 |
| GGATGCTCAC | 1.03 |
| CTGCGGCCTA | 1.03 |
| GCTCAAGAAG | 1.03 |
| GCGGTTGTAA | 1.04 |
| TACACAACCA | 1.17 |
| CGAACGGTTA | 1.14 |
| AAATCTTAG | 1.04 |
| GTGACACATA | 1 |
| TGTCGGAAGC | 0.96 |
| CTCAGATGCT | 1.01 |
| TTTCGGCAGA | 1.22 |
| TGCACGCCGT | 1.07 |
| TTCACGTCGG | 1.03 |
| GGCCTGCGAT | 1.13 |
| ACCTATCGCA | 1.95 |

| Sequence | switch fluorescence ratio |
| --- | --- |
| AGTGTTCGCA | 1 |
| GGAAATCTTT | 0.953 |
| CCGACTGATA | 2.02 |
| TTAACAACGG | 1.1 |
| GACGAAGGGA | 1.1 |
| TTACTGTACA | 1.46 |
| CGCGCTTAGG | 1.09 |
| ATTTTCGACT | 1.02 |
| AAAAGGGTGC | 1.08 |
| CGGGCCGTGT | 0.983 |
| TTGTCGAGAA | 0.988 |
| AGCATATGAG | 1.06 |
| AAAGCGTGTA | 1.04 |
| ATCGGAGTCT | 0.967 |
| TGTTGCACGT | 0.962 |
| TAGCTTGCCG | 1.04 |
| AAAAATGAAA | 1 |
| ACGCTATTTT | 1.21 |
| CGAGCGGACA | 1.12 |
| GGGTGCGAGC | 0.958 |
| TCGAAGAA | 1.02 |
| CAAAATGGCG | 1.01 |
| GATGTGGAGA | 1.05 |
| ATTCTTTAA | 0.973 |
| TTCGGCC | 1 |

| Sequence | switch fluorescence ratio |
| --- | --- |
| CCATAGTTTT | 1.01 |
| ATTTGTACAG | 1.02 |
| AGGGGGTGAA | 1.02 |
| AGTTTATCTA | 1.01 |
| TAGGATTGAC | 0.989 |
| CCGATACGAG | 3.47 |
| GAGTGGATGC | 0.976 |
| AGGGCCCACT | 0.994 |
| GGCGCACGGT | 0.967 |
| ACTAATTAGG | 1.03 |
| AGGCATAGGC | 0.997 |
| CAGGGATTAT | 1 |
| ATTGATGAAG | 1.03 |
| GTCTTGACCG | 1.03 |
| GAAACCTGTT | 0.944 |
| AGTTGTTTGC | 0.98 |
| CTCCGGACTG | 1.15 |
| CACAAATGTA | 1 |
| GTATAAATGA | 0.972 |
| CGACTATGCG | 1.07 |
| AAACACCAGC | 1.26 |
| CGATTGTATT | 0.988 |
| TTTGACCCGA | 1.02 |
| CCTATTAGTA | 1 |
| TAGGTAAAAT | 1.02 |
